# Assay results from the supplement of paper PMC8728848.
# This is one part of the list.
# What was measured:
# Assay in all cases: glycan array binding signal (z-score within array); higher = stronger binding
# Conditions in all cases: glycan notation: IUPAC condensed, linker removed
# Neu5Ac(a2-3)Gal(b1-4)Glc = target: Neu5Ac(a2-3)Gal(b1-4)Glc
# Summary of the method: (§1)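 Glycan array binding is given as a within-array Z-score, which can be read as non-binding when negative. The arrays, 3228 of them, came from the Consortium for Functional Glycomics database and were retained only where the protein sequence was available. Z-scores were averaged across arrays of the same protein sequence at different concentrations or buffers and across linkers.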
# [1] = target: Neu5Ac(a2-3)Gal(b1-4)GlcNAc
# Summary of the method: as §1
# [2] = target: Neu5Ac(a2-3)Gal(b1-4)GlcNAc(b1-2)Man
# Summary of the method: as §1
# [3] = target: Neu5Ac(a2-3)Gal(b1-4)GlcNAc(b1-2)Man(a1-3)[GlcNAc(b1-4)][Neu5Ac(a2-3)Gal(b1-4)GlcNAc(b1-2)Man(a1-6)]Man(b1-4)GlcNAc(b1-4)GlcNAc
# Summary of the method: as §1
# [4] = target: Neu5Ac(a2-3)Gal(b1-4)GlcNAc(b1-2)Man(a1-3)[Neu5Ac(a2-3)Gal(b1-4)GlcNAc(b1-2)Man(a1-6)]Man(b1-4)GlcNAc(b1-4)GlcNAc
# Summary of the method: as §1
# [5] = target: Neu5Ac(a2-3)Gal(b1-4)GlcNAc(b1-2)Man(a1-3)[Neu5Ac(a2-3)Gal(b1-4)GlcNAc(b1-2)Man(a1-6)]Man(b1-4)GlcNAc(b1-4)[Fuc(a1-6)]GlcNAc
# Summary of the method: as §1
# [6] = target: Neu5Ac(a2-3)Gal(b1-4)GlcNAc(b1-2)Man(a1-3)[Neu5Ac(a2-6)Gal(b1-4)GlcNAc(b1-2)Man(a1-6)]Man(b1-4)GlcNAc(b1-4)GlcNAc
# Summary of the method: as §1
# [7] = target: Neu5Ac(a2-3)Gal(b1-4)GlcNAc(b1-2)[Neu5Ac(a2-3)Gal(b1-4)GlcNAc(b1-4)]Man(a1-3)[GlcNAc(b1-4)][Neu5Ac(a2-3)Gal(b1-4)GlcNAc(b1-2)[Neu5Ac(a2-3)Gal(b1-4)GlcNAc(b1-6)]Man(a1-6)]Man(b1-4)GlcNAc(b1-4)GlcNAc
# Summary of the method: as §1
# [8] = target: Neu5Ac(a2-3)Gal(b1-4)GlcNAc(b1-2)[Neu5Ac(a2-3)Gal(b1-4)GlcNAc(b1-4)]Man(a1-3)[GlcNAc(b1-4)][Neu5Ac(a2-3)Gal(b1-4)GlcNAc(b1-4)Man(a1-6)]Man(b1-4)GlcNAc(b1-4)GlcNAc
# Summary of the method: as §1
# [9] = target: Neu5Ac(a2-3)Gal(b1-4)GlcNAc(b1-2)[Neu5Ac(a2-3)Gal(b1-4)GlcNAc(b1-6)]Man(a1-6)[Neu5Ac(a2-3)Gal(b1-4)GlcNAc(b1-2)Man(a1-3)]Man(b1-4)GlcNAc(b1-4)GlcNAc
# Summary of the method: as §1
# [10] = target: Neu5Ac(a2-3)Gal(b1-4)GlcNAc(b1-2)[Neu5Ac(a2-3)Gal(b1-4)GlcNAc(b1-6)]Man(a1-6)[Neu5Ac(a2-3)Gal(b1-4)GlcNAc(b1-2)Man(a1-3)][GlcNAc(b1-4)]Man(b1-4)GlcNAc(b1-4)GlcNAc
# Summary of the method: as §1
# [11] = target: Neu5Ac(a2-3)Gal(b1-4)GlcNAc(b1-3)Gal
# Summary of the method: as §1
# [12] = target: Neu5Ac(a2-3)Gal(b1-4)GlcNAc(b1-3)Gal(b1-3)GlcNAc
# Summary of the method: as §1
# [13] = target: Neu5Ac(a2-3)Gal(b1-4)GlcNAc(b1-3)Gal(b1-4)GlcNAc
# Summary of the method: as §1
# [14] = target: Neu5Ac(a2-3)Gal(b1-4)GlcNAc(b1-3)Gal(b1-4)GlcNAc(b1-2)Man(a1-3)[Neu5Ac(a2-3)Gal(b1-4)GlcNAc(b1-3)Gal(b1-4)GlcNAc(b1-2)Man(a1-6)]Man(b1-4)GlcNAc(b1-4)GlcNAc
# Summary of the method: as §1
# [15] = target: Neu5Ac(a2-3)Gal(b1-4)GlcNAc(b1-3)Gal(b1-4)GlcNAc(b1-3)Gal(b1-4)GlcNAc
# Summary of the method: as §1
# [16] = target: Neu5Ac(a2-3)Gal(b1-4)GlcNAc(b1-3)Gal(b1-4)GlcNAc(b1-3)Gal(b1-4)GlcNAc(b1-2)Man(a1-3)[Neu5Ac(a2-3)Gal(b1-4)GlcNAc(b1-3)Gal(b1-4)GlcNAc(b1-3)Gal(b1-4)GlcNAc(b1-2)Man(a1-6)]GalNAc
# Summary of the method: as §1
# [17] = target: Neu5Ac(a2-3)Gal(b1-4)GlcNAc(b1-3)Gal(b1-4)GlcNAc(b1-3)GalNAc
# Summary of the method: as §1
# [18] = target: Neu5Ac(a2-3)Gal(b1-4)GlcNAc(b1-3)Gal(b1-4)GlcNAc(b1-3)[Neu5Ac(a2-3)Gal(b1-4)GlcNAc(b1-3)Gal(b1-4)GlcNAc(b1-6)]GalNAc
# Summary of the method: as §1
# [19] = target: Neu5Ac(a2-3)Gal(b1-4)GlcNAc(b1-3)Gal(b1-4)GlcNAc(b1-6)[Gal(b1-3)]GalNAc
# Summary of the method: as §1
# [20] = target: Neu5Ac(a2-3)Gal(b1-4)GlcNAc(b1-3)Gal(b1-4)[Fuc(a1-3)]GlcNAc
# Summary of the method: as §1
# [21] = target: Neu5Ac(a2-3)Gal(b1-4)GlcNAc(b1-3)GalNAc
# Summary of the method: as §1
# [22] = target: Neu5Ac(a2-3)Gal(b1-4)GlcNAc(b1-3)[Neu5Ac(a2-3)Gal(b1-4)GlcNAc(b1-6)]GalNAc
# Summary of the method: as §1
# [23] = target: Neu5Ac(a2-3)Gal(b1-4)GlcNAc(b1-6)GalNAc
# Summary of the method: as §1
# [24] = target: Neu5Ac(a2-3)Gal(b1-4)GlcNAc(b1-6)[Gal(b1-3)]GalNAc
# Summary of the method: as §1
# [25] = target: Neu5Ac(a2-3)Gal(b1-4)GlcNAc(b1-6)[Neu5Ac(a2-3)Gal(b1-3)]GalNAc
# Summary of the method: as §1
# [26] = target: Neu5Ac(a2-3)Gal(b1-4)GlcNAc6S
# Summary of the method: as §1
# [27] = target: Neu5Ac(a2-3)Gal(b1-4)[Fuc(a1-3)]GlcNAc
# Summary of the method: as §1
# [28] = target: Neu5Ac(a2-3)Gal(b1-4)[Fuc(a1-3)]GlcNAc(b1-2)Man
# Summary of the method: as §1
# [29] = target: Neu5Ac(a2-3)Gal(b1-4)[Fuc(a1-3)]GlcNAc(b1-3)Gal
# Summary of the method: as §1
# [30] = target: Neu5Ac(a2-3)Gal(b1-4)[Fuc(a1-3)]GlcNAc(b1-3)Gal(b1-4)GlcNAc
# Summary of the method: as §1
# [31] = target: Neu5Ac(a2-3)Gal(b1-4)[Fuc(a1-3)]GlcNAc(b1-3)Gal(b1-4)[Fuc(a1-3)]GlcNAc(b1-3)Gal(b1-4)[Fuc(a1-3)]GlcNAc
# Summary of the method: as §1
# [32] = target: Neu5Ac(a2-3)Gal(b1-4)[Fuc(a1-3)]GlcNAc(b1-3)GalNAc
# Summary of the method: as §1
# [33] = target: Neu5Ac(a2-3)Gal(b1-4)[Fuc(a1-3)]GlcNAc(b1-6)[Gal(b1-3)]GalNAc
# Summary of the method: as §1
# [34] = target: Neu5Ac(a2-3)Gal(b1-4)[Fuc(a1-3)]GlcNAc(b1-6)[Neu5Ac(a2-3)Gal(b1-3)]GalNAc
# Summary of the method: as §1
# [35] = target: Neu5Ac(a2-3)Gal(b1-4)[Fuc(a1-3)]GlcNAc6S
# Summary of the method: as §1
# [36] = target: Neu5Ac(a2-3)Gal6S(b1-4)GlcNAc
# Summary of the method: as §1
# [37] = target: Neu5Ac(a2-3)Gal6S(b1-4)[Fuc(a1-3)]GlcNAc
# Summary of the method: as §1
# Neu5Ac(a2-3)GalNAc = target: Neu5Ac(a2-3)GalNAc
# Summary of the method: as §1
binder,measurement,setting,value
"AAA (Anguilla anguilla), Q7SIC1 (protein) VIPEGYTQENVAVRGKATQSAQLRGEHAANSEASNAIDGNRDSNFYHGSCTHSSGQANPWWRVDLLQVYTITSVTITNRGDCCGERISGAEINIGQHLASNGVNNPECSVIGSMATGETKTFHCPAPMIGRYVVTYLPTSESLHLCEVEVNVDKPAAA",glycan array binding signal (z-score),Neu5Ac(a2-3)Gal(b1-4)Glc,-0.064
same,glycan array binding signal (z-score),[1],-0.086
same,glycan array binding signal (z-score),[2],-0.02
same,glycan array binding signal (z-score),[3],-0.193
same,glycan array binding signal (z-score),[4],-0.248
same,glycan array binding signal (z-score),[5],-0.279
same,glycan array binding signal (z-score),[6],-0.319
same,glycan array binding signal (z-score),[7],-0.284
same,glycan array binding signal (z-score),[8],-0.26
same,glycan array binding signal (z-score),[9],-0.127
same,glycan array binding signal (z-score),[10],-0.271
same,glycan array binding signal (z-score),[11],-0.341
same,glycan array binding signal (z-score),[12],0.182
same,glycan array binding signal (z-score),[13],-0.285
same,glycan array binding signal (z-score),[14],0.96
same,glycan array binding signal (z-score),[15],-0.061
same,glycan array binding signal (z-score),[16],1.85
same,glycan array binding signal (z-score),[17],-0.289
same,glycan array binding signal (z-score),[18],0.062
same,glycan array binding signal (z-score),[19],0.085
same,glycan array binding signal (z-score),[20],-0.425
same,glycan array binding signal (z-score),[21],-0.238
same,glycan array binding signal (z-score),[22],-0.192
same,glycan array binding signal (z-score),[23],-0.175
same,glycan array binding signal (z-score),[24],-0.017
same,glycan array binding signal (z-score),[25],-0.184
same,glycan array binding signal (z-score),[26],-0.093
same,glycan array binding signal (z-score),[27],-0.098
same,glycan array binding signal (z-score),[28],-0.24
same,glycan array binding signal (z-score),[29],-0.378
same,glycan array binding signal (z-score),[30],-0.328
same,glycan array binding signal (z-score),[31],0.079
same,glycan array binding signal (z-score),[32],0.084
same,glycan array binding signal (z-score),[33],0.235
same,glycan array binding signal (z-score),[34],0.034
same,glycan array binding signal (z-score),[35],-0.059
same,glycan array binding signal (z-score),[36],-0.179
same,glycan array binding signal (z-score),[37],-0.149
same,glycan array binding signal (z-score),Neu5Ac(a2-3)GalNAc,-0.283
